# The other results are listed elsewhere or left out. At the low end of the ranking the order means little. Measured with an extract: partners may take part in the binding.
# Molecular target: T1, HNF4alpha8 (COS-7 nuclear extract) (UniProt P41235-5)
# T1 sequence: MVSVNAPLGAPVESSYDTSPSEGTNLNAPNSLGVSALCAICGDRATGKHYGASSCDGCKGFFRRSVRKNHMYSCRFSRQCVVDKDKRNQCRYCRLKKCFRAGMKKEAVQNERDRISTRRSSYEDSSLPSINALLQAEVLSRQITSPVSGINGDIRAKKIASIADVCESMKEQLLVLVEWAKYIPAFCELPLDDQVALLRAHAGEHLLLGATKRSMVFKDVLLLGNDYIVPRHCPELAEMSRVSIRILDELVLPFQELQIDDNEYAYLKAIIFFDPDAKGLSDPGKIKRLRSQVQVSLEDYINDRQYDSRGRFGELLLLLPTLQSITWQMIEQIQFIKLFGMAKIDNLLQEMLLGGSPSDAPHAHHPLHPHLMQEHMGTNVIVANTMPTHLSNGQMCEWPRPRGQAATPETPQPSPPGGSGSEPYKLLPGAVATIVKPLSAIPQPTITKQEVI
# Test: protein-binding microarray
# Conditions: COS-7 nuclear extract on double-stranded Agilent 4x180k PBM; binding buffer, salt, pH and temperature not given; high values mean tight binding; double strand, one strand shown; sequences stand for … in …GCCTAGGGAGATTAGAGTATCGGTCGA
row,Sequence,binding signal (log2 normalized intensity)
1,TGTGGTTCCCAAGAAGAGCCCAGACAAGCA,-1.23
2,GCCCTCCAAACTGAGAGATTTTTTCTTCCA,-0.439
3,TGGCTTATGCAAATGTTATGGCTGGTTTGG,1.58
4,GCAGATGTGTCTTTATAACAGACTGTAGGC,0.575
5,CTGCTGAGAGAGCAGGTTGAGTATCTACCA,-1.28
6,ATGACTGCAGAGCTTGCTCTCACCAGCTTC,-1.3
7,TGGTTGACATACTTCTGAGTTTTATCAGCT,-1.2
8,ATCAGGCTCTGGAATCTCTGGATTTCAGGT,0.344
9,TTCTCAGAAACGCCTGGCGCTTATCTGAGC,-1.33
10,CGTCGATTAGCTGGGGACCCGTCGCTGCTG,-1.44
11,GGGGATGAGATCTGAAGATAAATGCCTTAG,-1.42
12,AGTGCAAGGCCCAGCTAGAAGCAGTGGGAC,-1.23
13,GTGCCCTTTGAGATTTGCATTCATGATCTT,2.02
14,GTGATCAGGTGTGGGCATTAGCAGGGAGGA,-1.41
15,TTACTTCATAGGATTAAGTGCATACTCAAA,1.14
16,GAACTGGTGACCGGACACAAAAGCTGCTGC,-1.41
17,ATGGGAATTAGGGAGTAGGGACAGCTAGTC,-1.28
18,GACTACTTCTCACCACCTCTGCTGCGATCA,-1.41

row,Sequence,binding signal (log2 normalized intensity)
1,TGACAATTACATAGTTGAAATAGCATGAAT,-1.32
2,TCTTTGGTGGTGGGGGGTAGCCACTGACAG,-1.2
3,GATGTTCTACACTGCTTACCCTGCAGTGTG,-0.757
4,GGTGGTGATGGTGGGAGGGAGGCTTTTGCA,-1.33
5,GCTAAGAGACAGCTCCACAGCTGGACTTTG,5.9
6,GAGGCAGTCCTGGCTTGGCCACCTACTAGC,-1.4
7,AGAGAGGGATTAAAGTGTAGGGAGTGTCCA,-0.181
8,CTTTGTTGGTTTTGCCCGAGGTCTGATAAG,1.55
9,CAAATATTTACTAGTTAAGTCACTGGGCTG,-1.32
10,AAGTGTCAGAGCAGGTGAACGACTTGACAA,-1.36
11,TGGGGTCTCGCTGCTTCGGCCTTTGACCTC,8.46
12,TTCATAGGTCAATTCTTTGAAGTCTTCCCT,1.03
13,ATCCTGGGCTACCGATATGAGGCTTCCATT,-1.38
14,GAGAGTCAAAGGTTAATGAGCCCCCTAAAA,4.43
15,CAGAGGACAGGTTTCCTGAGTTACAGATAA,-0.778
16,TGGAGATATGATAGCTGACAAGCAAACACA,-1
17,CCTCCTATGATCTTTCATTCCTATTGTCCC,1.88
18,TCGTGCCCTAATCTCACTCTTTGTTATTTA,0.865

# Reference: article PMC10726135
